Inconclusive means that the source gave no clear call. Such entries were picked first, then a sample of the others. Potencies beside an inconclusive call are fits to weak or partial responses and may not hold up. The source holds several records for some structures; these can differ, active in one and inactive in another. Calls of active or inactive are those of the source. Unless noted, calls follow the shape of the dose curve; as a rule, active = well fitted curve in the direction sought with a large enough effect in the repeat runs; inconclusive = weak or mixed curves; inactive = no such curve, though single readings can be large; an effect the other way counts as inactive or inconclusive.
Key:
[1] = target: Vitamin D3 receptor (Homo sapiens) (UniProt P11473); test: qHTS assay to identify small molecule agonists of the vitamin D receptor (VDR) signaling pathway (AID 743222; calls by dose curve; as to activation: % is scaled to controls: 0 for no effect and ±100 for the full control effect); settings: HEK293T VDR-UAS-bla, beta-lactamase FRET ratio, 16 h; activation: at 63.5 µM (top of the series) unless noted
UniProt P11473, sequence (P11473 whole entry, looked up): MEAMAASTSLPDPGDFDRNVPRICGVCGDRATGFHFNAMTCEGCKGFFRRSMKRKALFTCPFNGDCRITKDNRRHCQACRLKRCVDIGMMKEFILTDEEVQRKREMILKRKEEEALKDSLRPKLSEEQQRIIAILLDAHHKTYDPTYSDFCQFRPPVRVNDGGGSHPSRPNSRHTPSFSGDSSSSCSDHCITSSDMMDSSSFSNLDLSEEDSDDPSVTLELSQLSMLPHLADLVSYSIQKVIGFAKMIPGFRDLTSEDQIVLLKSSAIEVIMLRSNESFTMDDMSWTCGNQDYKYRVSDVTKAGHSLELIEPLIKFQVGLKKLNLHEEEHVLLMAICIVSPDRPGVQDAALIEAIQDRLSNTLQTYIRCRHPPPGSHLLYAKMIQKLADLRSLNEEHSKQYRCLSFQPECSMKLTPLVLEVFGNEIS
Method in brief: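 Agonist activity measured in VDR-bla reporter cells. Exposure 16 h, 37C, 5% CO2; detection by B/G FRET substrate, 2 h RT.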

[2] = qHTS assay to identify small molecule agonists of the endoplasmic reticulum stress response signaling pathway (AID 1159516; active = well fitted activation curve with a large enough effect in the signal ratio in the repeat runs, not every such curve was filed as active; inconclusive = weak or mixed curves, or effect the other way; the % refers to the signal ratio; as to activation: % is scaled to controls: 0 for no effect and ±100 for the full control effect); settings: ESRE-bla HeLa, ER stress beta-lactamase reporter, 5 h; activation: at 61 µM (top of the series) unless noted
Method in brief: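 ER stress element reporter (bla) in HeLa. 1,500 cells/well, overnight attachment; 5 hr compound; 2 hr RT substrate; dual-emission fluorescence.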

[3] = target: Nuclear receptor ROR-gamma (Homo sapiens) (UniProt P51449); test: qHTS assay to identify small molecule antagonists of the retinoid-related orphan receptor gamma (ROR-gamma) signaling pathway (AID 1159521; also: nearly all actives have a fitted effect of over 50% in size;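 as to activity change, negative = inhibition: CHO cells with doxycycline inducible ROR-gamma driving an RORE luciferase reporter; top concentration of the series differs between compounds; % is scaled to controls: 0 for no effect and ±100 for the full control effect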)
Method in brief: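 Cells were plated, rested 4 h at 37 C, exposed to compounds for 2 h, then given 1 uM final doxycycline hyclate to induce RORγ expression. After 16 h, ONE-Glo luminescence from the ROR response element reporter was measured.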

[4] = target: Retinoic acid receptor RXR-alpha (Homo sapiens) (UniProt P19793); test: qHTS assay to identify small molecule agonists of the RXR signaling pathway (AID 1159527; calls by dose curve; also: nearly all actives have a fitted effect of over 35% in size; as to activation: % is scaled to controls: 0 for no effect and ±100 for the full control effect); settings: HEK293T RXRa-UAS-bla, beta-lactamase ratio, 16 h; activation: at 76.8 µM (top of the series) unless noted
UniProt P19793, sequence (P19793 whole entry, looked up): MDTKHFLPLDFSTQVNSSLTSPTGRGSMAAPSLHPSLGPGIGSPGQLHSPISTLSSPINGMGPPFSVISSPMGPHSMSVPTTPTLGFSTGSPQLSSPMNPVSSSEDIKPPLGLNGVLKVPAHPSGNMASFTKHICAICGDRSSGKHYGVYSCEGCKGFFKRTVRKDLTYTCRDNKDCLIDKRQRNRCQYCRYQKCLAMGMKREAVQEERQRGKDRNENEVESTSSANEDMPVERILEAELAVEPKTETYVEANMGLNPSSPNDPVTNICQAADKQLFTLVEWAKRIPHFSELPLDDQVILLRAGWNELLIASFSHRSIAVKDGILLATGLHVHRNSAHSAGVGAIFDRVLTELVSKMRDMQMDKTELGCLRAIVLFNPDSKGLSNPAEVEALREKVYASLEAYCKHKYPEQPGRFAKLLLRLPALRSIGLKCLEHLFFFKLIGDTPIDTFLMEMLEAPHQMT
Method in brief: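 Cells plated at 2,000/well, rested 5 hr at 37 C, pin-dosed with DMSO compound solutions, incubated 16 hr, then loaded with B/G FRET substrate for 2 hr at RT before dual-emission fluorescence reading.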

[5] = qHTS assay to identify small molecule antagonists of the retinoid acid receptor (RAR) signaling pathway - cell viability counter screen (AID 1159551); also: nearly all actives have a fitted effect of over 35% in size
Method in brief: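 Following overnight attachment, C3RL4 reporter cells received DMSO-dissolved compounds and then retinol (1 uM final). Six hours later at 37 C, ATP content was measured by CellTiter-Glo luminescence.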

[6] = qHTS assay to identify small molecule antagonists of the peroxisome proliferator-activated receptor delta (PPARd) signaling pathway - cell viability counter screen (AID 743213); settings: PPARd-bla HEK293H viability, CellTiter-Glo luminescence, 17 h; viability change, negative = cytotoxic: at 62 µM (top of the series) unless noted; also: nearly all actives have a fitted effect of over 50% in size
Method in brief: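 Agonist-stimulated (L165041, 300 nM final) HEK293H PPARd UAS-bla cells are exposed to compounds for 17 h at 37 C, and ATP-based luminescence (CellTiter-Glo) from the same wells reports cytotoxicity.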

[7] = target: Bile acid receptor (Homo sapiens) (UniProt Q96RI1); test: qHTS assay to identify small molecule agonists of the farnesoid-X-receptor (FXR) signaling pathway (AID 743220; active = well fitted activation curve with a large enough effect in the signal ratio in the repeat runs, not every such curve was filed as active; inconclusive = weak or mixed curves, or effect the other way; the % refers to the signal ratio); settings: HEK293T FXR-UAS-bla, beta-lactamase FRET ratio, 16 h; activation: at 62.6 µM (top of the series) unless noted
UniProt Q96RI1, sequence (Q96RI1 whole entry, looked up): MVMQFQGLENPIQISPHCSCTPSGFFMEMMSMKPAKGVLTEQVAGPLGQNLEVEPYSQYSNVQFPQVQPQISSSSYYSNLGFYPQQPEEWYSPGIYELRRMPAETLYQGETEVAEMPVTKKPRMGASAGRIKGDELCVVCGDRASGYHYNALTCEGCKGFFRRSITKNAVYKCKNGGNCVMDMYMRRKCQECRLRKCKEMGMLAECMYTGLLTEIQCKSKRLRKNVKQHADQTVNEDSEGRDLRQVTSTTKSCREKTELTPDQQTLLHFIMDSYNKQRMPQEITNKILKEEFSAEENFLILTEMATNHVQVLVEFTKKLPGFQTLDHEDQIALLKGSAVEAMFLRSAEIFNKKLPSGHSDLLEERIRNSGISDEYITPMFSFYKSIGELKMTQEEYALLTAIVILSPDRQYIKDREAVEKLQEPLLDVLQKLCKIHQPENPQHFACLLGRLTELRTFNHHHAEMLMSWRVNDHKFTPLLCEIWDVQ
Method in brief: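 Beta-lactamase reporter under UAS control in GeneBLAzer FXR HEK 293T cells (5000/well) measured with LiveBLAzer FRET substrate after 2 h at room temperature. Compound exposure lasted 16 h at 37C.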

[8] = qHTS assay to identify small molecule agonists of the RXR signaling pathway - cell viability counter screen (AID 1159529); also: nearly all actives have a fitted effect of over 50% in size
Method in brief: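 Steps: seed RXR-alpha-UAS-bla HEK 293T cells in assay medium containing 2% charcoal-stripped FBS; incubate 5 hr; add compounds in DMSO; incubate 16 hr at 37 C; after the bla read, add CellTiter-Glo and read luminescence at 30 min.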

[9] = target: Peroxisome proliferator-activated receptor delta (Homo sapiens) (UniProt Q03181); test: qHTS assay to identify small molecule agonists of the peroxisome proliferator-activated receptor delta (PPARd) signaling pathway (AID 743212; calls by dose curve); settings: HEK293H PPARd-UAS-bla, beta-lactamase FRET ratio, 17 h; activation: at 62.6 µM (top of the series) unless noted
UniProt Q03181, sequence (Q03181 whole entry, looked up): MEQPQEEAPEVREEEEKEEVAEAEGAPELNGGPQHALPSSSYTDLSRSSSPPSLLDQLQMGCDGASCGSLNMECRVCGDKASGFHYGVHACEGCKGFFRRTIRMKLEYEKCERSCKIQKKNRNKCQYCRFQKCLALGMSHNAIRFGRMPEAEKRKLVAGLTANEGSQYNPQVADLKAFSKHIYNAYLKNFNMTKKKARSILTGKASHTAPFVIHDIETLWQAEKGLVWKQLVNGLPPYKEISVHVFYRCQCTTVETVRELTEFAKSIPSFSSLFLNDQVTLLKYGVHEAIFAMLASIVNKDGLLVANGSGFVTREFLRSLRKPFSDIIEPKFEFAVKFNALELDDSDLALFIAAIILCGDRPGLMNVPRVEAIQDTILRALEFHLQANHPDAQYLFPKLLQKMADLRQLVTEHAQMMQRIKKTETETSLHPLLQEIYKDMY
Method in brief: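 HEK293H UAS-bla reporter cells, human PPARd system; compounds delivered in DMSO after 5 h plating, then at 37 C. Beta-lactamase FRET read, 2 h RT substrate step.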

[10] = qHTS assay to identify small molecule agonists of the farnesoid-X-receptor (FXR) signaling pathway - cell viability counter screen (AID 743218); settings: FXR-bla HEK293T viability, CellTiter-Glo luminescence, 16 h; viability change, negative = cytotoxic: at 62.6 µM (top of the series) unless noted; also: nearly all actives have a fitted effect of over 45% in size
Method in brief: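 In GeneBLAzer FXR-UAS-bla HEK 293T cells, compounds act for 16 h at 37 C. Cell viability is then scored in the reporter wells by CellTiter-Glo, 30 min at RT, luminescence.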

[11] = qHTS assay to identify small molecule antagonists of the farnesoid-X-receptor (FXR) signaling pathway - cell viability counter screen (AID 743221; active = well fitted cell-killing curve with a large enough effect in the repeat runs, not every such curve was filed as active; inconclusive = weak or mixed curves, or effect the other way; inactive = no such curve, though single readings can be large or run the other way; also: nearly all actives have a fitted effect of over 50% in size); settings: FXR-bla HEK293T viability, CellTiter-Glo luminescence, 16 h; activity change, negative = cytotoxicity: at 62.6 µM (top of the series)
Method in brief: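 Multiplexed counter screen: viability of FXR-bla HEK 293T cells under agonist stimulation by chenodeoxycholic acid (50 uM, final) and test compound for 16 h at 37 C, measured by CellTiter-Glo luminescence in the reporter wells.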

[12] = qHTS assay to identify small molecule antagonists of the vitamin D receptor (VDR) signaling pathway - cell viability counter screen (AID 743225); settings: VDR-bla HEK293T viability, CellTiter-Glo luminescence, 16 h; viability change, negative = cytotoxic: at 61 µM (top of the series) unless noted; also: nearly all actives have a fitted effect of over 50% in size
Method in brief: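 HEK293T VDR-bla; cpd + 1a,25-(OH)2D3 3 nM final, 16 h 37C/5% CO2; B/G FRET substrate 2 h RT; then CellTiter-Glo 30 min RT, luminescence.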

[13] = qHTS assay to identify small molecule agonists of the AP-1 signaling pathway (AID 1159526; calls by dose curve); settings: ME-180 (cervical carcinoma) AP-1-bla reporter, beta-lactamase FRET ratio, 5 h; activation: at 76.8 µM (top of the series) unless noted
[14] = target: Peroxisome proliferator-activated receptor delta (Homo sapiens) (UniProt Q03181); test: qHTS assay to identify small molecule antagonists of the peroxisome proliferator-activated receptor delta (PPARd) signaling pathway (AID 743215; active = well fitted inhibition curve with a large enough effect in the signal ratio in the repeat runs, not every such curve was filed as active; inconclusive = weak or mixed curves, or effect the other way; inactive = no such curve, though single readings can be large or run the other way; the % refers to the signal ratio); settings: HEK293H PPARd-UAS-bla, beta-lactamase FRET ratio, antagonist, 17 h; ratio activity, negative = inhibition: at 62 µM (top of the series) unless noted
Method in brief: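 Antagonist-mode beta-lactamase reporter screen: HEK293H cells with UAS-bla under PPARd control, stimulated by 300 nM L165041 (final) alongside test compound for 17 h at 37 C, then FRET fluorescence after 2 h substrate incubation.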

[15] = target: Vitamin D3 receptor (Homo sapiens) (UniProt P11473); test: qHTS assay to identify small molecule antagonists of the vitamin D receptor (VDR) signaling pathway (AID 743223; active = well fitted inhibition curve with a large enough effect in the signal ratio in the repeat runs, not every such curve was filed as active; inconclusive = weak or mixed curves, or effect the other way; inactive = no such curve, though single readings can be large or run the other way; the % refers to the signal ratio); settings: VDR-UAS-bla HEK293T, beta-lactamase FRET ratio, 16 h; activity change, negative = inhibition: at 61 µM (top of the series) unless noted
Method in brief: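 Cells carrying a VDR-driven beta-lactamase reporter (VDR-bla) were co-treated with compound and 3 nM final 1alpha,25-dihydroxyvitamin D3 for 16 h at 37C; reporter activity was measured as FRET substrate fluorescence after 2 h at room temperature.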

[16] = target: Bile acid receptor (Homo sapiens) (UniProt Q96RI1); test: qHTS assay to identify small molecule antagonists of the farnesoid-X-receptor (FXR) signaling pathway (AID 743217; active = well fitted inhibition curve with a large enough effect in the signal ratio in the repeat runs, not every such curve was filed as active; inconclusive = weak or mixed curves, or effect the other way; inactive = no such curve, though single readings can be large or run the other way; the % refers to the signal ratio); settings: HEK293T FXR-UAS-bla, beta-lactamase ratio, CDCA-stimulated, 16 h; activity change, negative = inhibition: at 62.6 µM (top of the series) unless noted
Method in brief: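 Beta-lactamase reporter under UAS control in HEK 293T cells; compound exposure 16 h at 37 °C in the presence of chenodeoxycholic acid (50 uM final); signal from B/G FRET substrate after 2 h at room temperature.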

[17] = qHTS assay to identify small molecule agonists of the vitamin D receptor (VDR) signaling pathway - cell viability counter screen (AID 743224); settings: VDR-bla HEK293T viability, CellTiter-Glo luminescence, 16 h; activity change, negative = cytotoxicity: at 62.6 µM (top of the series); also: nearly all actives have a fitted effect of over 50% in size
Method in brief: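 VDR-bla cell line, quantitative HTS format; 16 h compound incubation (37C, 5% CO2); ATP-based CellTiter-Glo luminescence measured in the reporter assay wells.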
Potency is read from the fitted curve at half-maximal effect; tags tell the direction and shape of the fitted curve or compound fluorescence and quenching.

O=C(O)CCCCCCCCCCCC(=O)O
53.6 µM (active) and inactive: Potency [3]
inactive: Potency [1]
inconclusive: activation [2] -0.0371% | activation [4] 12.8% | Potency [5] 67.5 µM [cytotoxic, single point]

CCOc1ccc(NC(=O)CC(C)O)cc1 (stereo not given)
inactive: Potency [3] | Potency [4] | Potency [8]
inconclusive: Potency [6] 6.68 µM [cytotoxic, single point] | Potency [7] 54.9 µM [activator, single point] | Potency [2] 15.1 µM [rising, full curve, poor fit]

CCCCCC[C@@H](O)C/C=C\CCCCCCCC(=O)O
active: Potency [9] 43.6 µM | Potency [6] 49 µM | Potency [4] 49 µM | Potency [8] 38.9 µM
inconclusive: Potency [10] 27.5 µM [cytotoxic, single point] | Potency [7] 54.9 µM [activator] | Potency [11] 54.9 µM [falling, single point] | Potency [1] 54.9 µM [fluorescent] | Potency [12] 54.9 µM [cytotoxic, single point] | Potency [2] 15.5 µM [fluorescent, partial curve, poor fit] | Potency [3] 0.0122 µM [inhibitor, partial curve, poor fit] | Potency [13] 4.9 µM [falling, partial curve, poor fit]

CC(C)NCC(O)c1ccc(O)c(O)c1 (stereo not given)
inactive: Potency [3]
inconclusive: Potency [1] 13.8 µM [rising, full curve, poor fit] | Potency [2] 0.535 µM [falling, single point] | Potency [4] 15.5 µM [activator] | activation [4] 18.2%

CCC(CN)=C(c1ccccc1)c1ccccc1
inconclusive: ratio activity, negative = inhibition [14] -35.1% | Potency [11] 23.7 µM | Potency [12] 26.8 µM [cytotoxic, single point] | Potency [2] 9.52 µM [falling, partial curve, poor fit] | Potency [3] 16.8 µM [inhibitor, full curve] | Potency [13] 26.8 µM | Potency [4] 23.9 µM [inhibitor]
active: Potency [6] 13.3 µM | Potency [10] 23.7 µM

CN(C)C(=O)Nc1ccc(Oc2ccc(Cl)cc2)cc1
inconclusive: Potency [3] 68.6 µM [inhibitor, single point] | activation [4] -23.3%
inactive: Potency [2]

O=C(O)CNCC(=O)O
inconclusive: activity change, negative = inhibition [15] 23% [at 6.95 µM] | Potency [3] 0.657 µM [inhibitor, single point]
inactive: activation [2] -0.0292% [at 6.95 µM] | activation [13] -4.84% [at 6.97 µM]

CC(C)=CCOc1ccc(/C=C/C(=O)c2ccc(OCC=C(C)C)cc2OCC(=O)O)cc1
inactive: Potency [1]
active: Potency [11] 21.1 µM
inconclusive: Potency [9] 23.7 µM [rising, partial curve] | Potency [14] 23.7 µM [rising, partial curve] | Potency [16] 29.8 µM | Potency [10] 13.3 µM [cytotoxic] | Potency [7] 10.6 µM [fluorescent, partial curve] | Potency [15] 23.9 µM | Potency [2] 7.56 µM [rising, partial curve] | Potency [3] 23.7 µM [inhibitor, partial curve] | activation [13] -9.04% [at 35.3 µM] | Potency [4] 8.49 µM [rising, partial curve] | Potency [8] 4.77 µM [cytotoxic, partial curve, poor fit]

O=C(CCc1ccc(O)cc1)c1c(O)cc(O)cc1O
inconclusive: Potency [1] 44.6 µM | Potency [2] 50.1 µM [cytotoxic, partial curve] | Potency [3] 70.1 µM [inhibitor, single point] | Potency [4] 22.4 µM [inhibitor, partial curve, poor fit]
inactive: Potency [16] | Potency [7] | Potency [8]

c1cc(N(CC2CO2)CC2CO2)ccc1Cc1ccc(N(CC2CO2)CC2CO2)cc1 (stereo not given)
inconclusive: Potency [9] 21.9 µM | Potency [14] 12.3 µM [rising, partial curve] | Potency [16] 43.6 µM [rising, single point] | Potency [7] 19.5 µM [fluorescent, full curve] | Potency [1] 3.89 µM [rising, full curve] | Potency [15] 43.6 µM [rising, partial curve] | Potency [17] 34.7 µM [cytotoxic, partial curve] | activation [2] 1.97% | Potency [3] 68.6 µM [inhibitor, single point] | Potency [13] 27.5 µM [falling, partial curve] | Potency [4] 19.5 µM [rising, partial curve]

Source: PubChem BioAssay (Tox21)
